Experiment [1] deals with Nicotinamide N-methyltransferase (Homo sapiens) (UniProt P40261). Description: Confirmatory Screen for Target Class Profiling of Small Molecule Inhibitors of Methyltransferases (AID 1745852).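 Further: inhibitor potency for blocking SAH production.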 Particulars: MTase-Glo luminescence, SAH detection, recombinant enzyme; measured here: NNMT inhibition potency.
Experiment [2] can be described thus: qHTS drug screen for cell cycle checkpoint inhibitors in PARPi-resistant BRCA-mutant ovarian cancer cell lines. (AID 1963452). The following applies: PEO1/OlaR viability, CellTiter-Glo luminescence, 96 h. The procedure, abridged: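 PEO1, PEO4 and PEO1/OlaR ovarian cancer cells, 600 per well, exposed 96 h at 37C to a dilution series. Viability read by CellTiter-Glo luminescence, normalized to DMSO and empty wells; activity summarized as Z-AUC.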
For orientation: In qHTS, concentration-response curves come from the screen itself.

Experiment [3] in a line: qHTS for identification of novel therapeutic agents for treatment of microphthalmiaassociated transcription factor (MiT) renal cell carcinoma (RCC) (AID 1963991). Particulars: CellTiter-Glo, 48 h; for z-score: stronger effect = lower value. Put shortly:
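Curves over 11 concentrations were fitted to CellTiter-Glo luminescence, scaled between empty wells (0%) and DMSO (100%) viability. Cells were UOK109, UOK124 and UOK145 TFE3-fusion RCC lines at 500/well, exposed 48 hours at 37 C.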

The target in experiment [4] is Phenylethanolamine N-methyltransferase (Homo sapiens) (UniProt P11086). Description: Confirmatory Screen for Target Class Profiling of Small Molecule Inhibitors of Methyltransferases (AID 1745852).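 Further: inhibitor potency for blocking SAH production.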 Particulars: MTase-Glo luminescence, SAH detection, recombinant enzyme; measured here: PNMT inhibition potency.
Sequence of UniProt P11086 (P11086 whole entry, looked up): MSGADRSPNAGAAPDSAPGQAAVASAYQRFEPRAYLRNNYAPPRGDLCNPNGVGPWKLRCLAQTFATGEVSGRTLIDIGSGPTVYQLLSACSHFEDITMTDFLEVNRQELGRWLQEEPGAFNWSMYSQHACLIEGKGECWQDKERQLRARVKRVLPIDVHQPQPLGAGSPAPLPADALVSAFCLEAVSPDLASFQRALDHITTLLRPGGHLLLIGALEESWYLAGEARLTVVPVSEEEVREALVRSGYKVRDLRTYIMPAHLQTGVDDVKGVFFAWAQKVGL
[5] abbreviates: measured here: PEO1 parental viability.
[6] abbreviates: TFE3-RCC viability, measured here: UOK124 cell viability.
Setting [7] is: TFE3-RCC viability, measured here: UOK145 cell viability.
Where [8] appears, read: TFE3-RCC UOK109 viability, measured here: UOK109 Z-AUC.
The mark [9] stands for this setting: TFE3-RCC viability, measured here: UOK124 Z-AUC.
[10] abbreviates: TFE3-RCC viability, measured here: UOK145 Z-AUC.

Drawing on PubChem BioAssay (NCATS), this text covers IC50, AC50 and z-score for 15 molecules.

Several values for one entry are separate records, joined by “and”; a condition that tells them apart may be missing. Identical values can stand only once. This is one part of the list. Shown are side measurements of this screen, not its main read-out; they come without a call. For some of these results: The list favours compounds with an active or inconclusive main result. Potencies come from curve fits of mixed quality, noted in brackets.
Tags describe the fitted curve by direction and shape.

Sequence of UniProt P40261 (P40261 whole entry, looked up): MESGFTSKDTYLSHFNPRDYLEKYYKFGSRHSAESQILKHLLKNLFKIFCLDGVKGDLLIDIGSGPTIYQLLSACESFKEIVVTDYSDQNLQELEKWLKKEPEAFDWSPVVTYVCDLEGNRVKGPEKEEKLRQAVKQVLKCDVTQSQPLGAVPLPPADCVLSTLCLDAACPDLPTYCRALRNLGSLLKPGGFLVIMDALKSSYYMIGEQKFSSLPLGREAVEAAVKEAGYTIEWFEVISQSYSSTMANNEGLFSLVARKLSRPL

What is called IC50 is the concentration that inhibits the measured activity by half. By AC50 is commonly meant the midpoint of the concentration-response curve, whichever way the signal moves. On to `Cc1ccc([N+](=O)[O-])cc1S(=O)(=O)N(C)/N=C/c1cnc2ccc(Br)cn12`, for which, in experiment [1], the IC50 is 19.2 µM [falling, partial curve]. In addition, the AC50 in experiment [2] (setting [5]) was 0.138 µM [falling, full curve]; in experiment [2] (measured here: PEO4 viability), 0.0871 µM [falling, full curve].

`CC(C)c1cc(-c2n[nH]c(=O)n2-c2ccc3c(ccn3C)c2)c(O)cc1O`: the IC50 in experiment [1] was 27.1 µM [falling, partial curve]. Further, the AC50 in experiment [2] (setting [5]) was 0.049 µM [falling, full curve]; in experiment [2] (measured here: PEO4 viability) it was 0.049 µM [falling, full curve]; in experiment [3] (setting [6]), 0.0935 µM [falling, full curve]; in experiment [3] (setting [7]), 0.105 µM [falling, full curve].

For the molecule `COc1cccc(NC(=O)Cn2c(=O)oc3cc(S(=O)(=O)N4CCCCC4C)ccc32)c1` (configuration not stated), the IC50 in experiment [4] was 21.5 µM [falling, partial curve].

For `CN(C)C/C=C/C(=O)Nc1cccc(C(=O)Nc2cccc(Nc3ncc(Cl)c(-c4c[nH]c5ccccc45)n3)c2)c1`, the concentration for half-maximal inhibition (IC50) in experiment [1] is 4.82 µM [falling, full curve]. The AC50 in experiment [2] (setting [5]) is 0.123 µM [falling, full curve]; in experiment [2] (measured here: PEO4 viability), 0.123 µM [falling, full curve].

As for `NC(=O)c1ccccc1Nc1ccnc(Nc2cccc(O)c2)n1`, the IC50 in experiment [1] was 21.5 µM [falling, partial curve]. Besides, the AC50 was 6.16 µM [falling, partial curve] in experiment [2] (setting [5]) and 0.977 µM [falling, partial curve] in experiment [2] (measured here: PEO4 viability).

On to `COc1cccc(NC(=O)Cn2c(=O)oc3cc(S(=O)(=O)N4CC(C)CC(C)C4)ccc32)c1` (configuration not stated), for which the IC50 in experiment [4] is 12.1 µM [falling, partial curve].

In the case of `Cc1cc(=O)oc2c(C=O)c(O)ccc12`, in experiment [4], the 50% inhibitory concentration (IC50) is 24.1 µM [falling, partial curve].

Consider `O=C(Nc1ccc(C(F)(F)F)cn1)N1CCN(c2ncccc2C(F)(F)F)CC1`, for which the IC50 in experiment [4] is 21.5 µM [falling, partial curve].

In the case of `CC(C)C[C@H](CO)Nc1nc(S[C@@H](C)c2ccccc2)nc2nc(N)sc12`, in experiment [1], the IC50 was 24.1 µM [falling, partial curve]. Also, the AC50 was 19.5 µM [falling, partial curve, poor fit] in experiment [2] (setting [5]) and 24.5 µM [falling, single point] in experiment [2] (measured here: PEO4 viability).

Consider `CCn1nnc2c(N3CCOCC3)nc(-c3ccc(NC(=O)Nc4ccc(C(=O)N5CCN(C)CC5)cc4)cc3)nc21`, for which the 50% inhibitory concentration (IC50) in experiment [1] is 17.1 µM [falling, partial curve]. The AC50 in experiment [2] (setting [5]) was 0.0871 µM [falling, full curve]; in experiment [2] (measured here: PEO4 viability) it was 0.0871 µM [falling, full curve]; in experiment [3] (setting [6]), 0.118 µM [falling, full curve]; in experiment [3] (setting [7]) it was 0.209 µM [falling, full curve].

As to `O=C(Cn1c(=O)oc2cc(S(=O)(=O)N3CCCC3)ccc21)NCCC1=CCCCC1`, the IC50 in experiment [4] was 6.81 µM [falling, full curve].

Turning to `CCOC(=O)[C@@H](N)Cc1ccc(-c2cc(O[C@H](c3ccc(Cl)cc3-n3ccc(C)n3)C(F)(F)F)nc(N)n2)cc1`, the IC50 in experiment [1] was 13.6 µM [falling, partial curve]. The AC50 in experiment [2] (setting [5]) was 24.5 µM [falling, single point]; in experiment [2] (measured here: PEO4 viability), 24.5 µM [falling, single point]; in experiment [3] (setting [6]), 33.2 µM [falling, single point]; in experiment [3] (setting [7]), 29.6 µM [falling, single point]. Further, the z-score in experiment [3] (setting [8]) is 0.693; in experiment [3] (setting [9]), -0.179; in experiment [3] (setting [10]), 0.428.

As for `CC1(C)CC(=O)c2c(C(F)(F)F)nn(-c3ccc(C(N)=O)c(NC4CCC(OC(=O)CN)CC4)c3)c2C1` (configuration not stated), the IC50 in experiment [1] is 21.5 µM [falling, partial curve]. For the same molecule, the AC50 is 0.138 µM [falling, full curve] in experiment [2] (setting [5]); 0.123 µM [falling, full curve] in experiment [2] (measured here: PEO4 viability); 0.148 µM [falling, full curve] in experiment [3] (setting [6]); 0.332 µM [falling, full curve] in experiment [3] (setting [7]). Also, the z-score in experiment [3] (setting [8]) is -1.02; in experiment [3] (setting [9]), -0.399; in experiment [3] (setting [10]) it was -1.12.

As for `O=C(O)c1ccc(O)c2ncc(N3CCCN(CCc4cccc5ccccc45)CC3)cc12`, the concentration for half-maximal inhibition (IC50) in experiment [4] is 24.3 µM [falling, partial curve].

As for `CS(=O)(=O)c1cccc(CNc2nc(Nc3ccc4c(c3)CCC(=O)N4)ncc2C(F)(F)F)c1`, the IC50 in experiment [1] was 19.2 µM [falling, partial curve] and 19.3 µM [falling, partial curve, poor fit]. The AC50 is 21.9 µM [falling, partial curve] in experiment [2] (setting [5]); 6.16 µM [falling, partial curve] in experiment [2] (measured here: PEO4 viability); 18.7 µM [falling, partial curve] in experiment [3] (setting [6]); 23.5 µM [falling, partial curve, poor fit] in experiment [3] (setting [7]). Besides, the z-score in experiment [3] (setting [8]) was 0.19; in experiment [3] (setting [9]), -0.146; in experiment [3] (setting [10]) it was -0.0736.
